Source: the supplement of paper PMC4967469

Columns and labels:
Assay in all cases: Viability of human cancer cell lines after 72 h of drug (GDSC screen)
[1] = compound: COc1cc2ncn(-c3cc(OCc4ccccc4C(F)(F)F)c(C(N)=O)s3)c2cc1OC [GW843682X]; conditions: top dose 0.256 µM
Description: (§1)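 Human cancer cell lines in 384-well plates, medium with 10% serum, drug for 72 h over a 256-fold dose range (nine 2-fold or five 4-fold steps up to the top dose). Adherent lines were fixed and stained with the nucleic acid dye Syto60, suspension lines read with resazurin; signal relative to control wells, capped at 0 and 100%. One two-parameter sigmoid per drug and line, fitted in a mixed model over all curves with the slope shared within a line.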

[2] = compound: COc1cc(/C=C/C(=O)N2CCC=CC2=O)cc(OC)c1OC [piperlongumine]; conditions: top dose 10 µM
Description: as §1

[3] = compound: CC(=O)Nc1nc(C)c(-c2ccc(Cl)c(S(=O)(=O)NCCO)c2)s1 [PIK-93]; conditions: top dose 20 µM
Description: as §1

[4] = compound: Cn1cc(/C=C2\C(=O)Nc3cccnc32)c2ccccc21 [GW 441756]; conditions: top dose 2 µM; top dose inferred
Description: as §1

[5] = compound: CC1(C)CCC(c2ccc(Cl)cc2)=C(CN2CCN(c3ccc(C(=O)NS(=O)(=O)c4ccc(N[C@H](CCN5CCOCC5)CSc5ccccc5)c(S(=O)(=O)C(F)(F)F)c4)cc3)CC2)C1 [ABT-263]; conditions: top dose 2 µM; top dose inferred
Description: as §1

[6] = compound: O=C(/C=C/c1ccccc1)NC(NC(=S)Nc1cccc2cccnc12)C(Cl)(Cl)Cl [Salubrinal]; conditions: top dose 16 µM; top dose inferred
Description: as §1

Row | Cell Line | AUC [1] | IC50 [1] [nM] | AUC [2] | IC50 [2] [nM] | AUC [3] | IC50 [3] [nM] | AUC [4] | IC50 [4] [nM] | AUC [5] | IC50 [5] [nM] | AUC [6] | IC50 [6] [nM]
1 | NCI-H1304 (small cell lung carcinoma, suspension) | 0.653 | 44 | 0.879 | > 10000 | 0.886 | > 20000 | 0.966 | > 2000 | 0.666 | 377 | 0.988 | > 16000
2 | HUTU-80 (digestive system, adherent) | 0.574 | 24.6 | 0.838 | 5150 | 0.81 | 8410 | 0.947 | > 2000 | 0.991 | > 2000 | 0.86 | 9860
3 | RPMI-8402 (T-cell lymphoblastic leukaemia, suspension) | 0.276 | 4.19 | 0.81 | 4240 | 0.276 | 328 | 0.989 | > 2000 | 0.692 | 389 | 0.953 | > 16000
4 | A498 (kidney, adherent) | 0.901 | > 256 | 0.69 | 2810 | 0.965 | > 20000 | 0.897 | > 2000 | 0.971 | > 2000 | 0.887 | > 16000
5 | NB13 (neuroblastoma, adherent) | 0.487 | 14.8 | 0.809 | 4490 | 0.739 | 5450 | 0.99 | > 2000 | 0.442 | 88.7 | 0.87 | 12100
6 | DND-41 (T-cell leukaemia, suspension) | 0.577 | 25.3 | 0.821 | 4920 | 0.292 | 353 | 0.437 | 85.8 | 0.499 | 124 | 0.977 | > 16000
7 | IST-SL1 (small cell lung carcinoma, semi-adherent) | 0.832 | 170 | 0.797 | 4860 | 0.735 | 5970 | 0.974 | > 2000 | 0.712 | 505 | 0.89 | > 16000
8 | 8-MG-BA (glioma, adherent) | 0.539 | 20.3 | 0.683 | 1950 | 0.872 | 17100 | 0.987 | > 2000 | 0.988 | > 2000 | 0.835 | 9560
9 | HT (B-cell lymphoma, suspension) | 0.81 | 122 | 0.812 | 4810 | 0.413 | 736 | 0.99 | > 2000 | 0.961 | > 2000 | 0.841 | 9820
10 | NCI-H1836 (small cell lung carcinoma, suspension) | 0.79 | 127 | 0.894 | > 10000 | 0.968 | > 20000 | 0.988 | > 2000 | 0.665 | 378 | 0.967 | > 16000
11 | TGW (neuroblastoma, adherent) | 0.492 | 15.3 | 0.83 | 5090 | 0.844 | 11400 | 0.98 | > 2000 | 0.407 | 72.4 | 0.95 | > 16000
12 | MC-CAR (haematopoietic neoplasm, suspension) | 0.68 | 47.9 | 0.753 | 3020 | 0.287 | 339 | 0.989 | > 2000 | 0.23 | 23 | 0.931 | > 16000
13 | CGTH-W-1 (thyroid, adherent) | 0.928 | > 256 | 0.684 | 2040 | 0.874 | 19200 | 0.831 | 1260 | 0.977 | > 2000 | 0.957 | > 16000
14 | EVSA-T (breast, adherent) | 0.865 | 174 | 0.816 | 4550 | 0.662 | 3280 | 0.989 | > 2000 | 0.958 | > 2000 | 0.881 | 12700
15 | NCI-H526 (small cell lung carcinoma, suspension) | 0.581 | 26.5 | 0.919 | > 10000 | 0.772 | 7390 | 0.99 | > 2000 | 0.706 | 460 | 0.986 | > 16000
16 | D-502MG (glioma, adherent) | 0.964 | > 256 | 0.74 | 4560 | 0.746 | 9660 | 0.957 | > 2000 | 0.965 | > 2000 | 0.851 | > 16000
17 | DB (B-cell lymphoma, suspension) | 0.859 | > 256 | 0.802 | 5640 | 0.574 | 2050 | 0.983 | > 2000 | 0.713 | 545 | 0.892 | > 16000
18 | CAS-1 (glioma, adherent) | 0.958 | > 256 | 0.857 | > 10000 | 0.823 | 18000 | 0.982 | > 2000 | 0.976 | > 2000 | 0.959 | > 16000
19 | NCI-H1770 (non-small cell lung carcinoma, suspension) | 0.919 | > 256 | 0.808 | 4420 | 0.909 | > 20000 | 0.992 | > 2000 | 0.515 | 137 | 0.937 | > 16000
20 | MZ1-PC (pancreas, adherent) | 0.401 | 7.98 | 0.82 | 7630 | 0.497 | 1220 | 0.963 | > 2000 | 0.975 | > 2000 | 0.958 | > 16000
21 | DSH1 (bladder, adherent) | 0.981 | > 256 | 0.981 | > 10000 | 0.883 | 19800 | 0.959 | > 2000 | 0.976 | > 2000 | 0.953 | > 16000
22 | EW-1 (Ewing sarcoma, semi-adherent) | 0.439 | 11 | 0.834 | 5790 | 0.521 | 1420 | 0.943 | > 2000 | 0.937 | > 2000 | 0.84 | 9790

Lines with a small IC50 respond at low doses; a fit beyond the top or the lowest dose is shown as a bound at that dose. For AUC the same curve is integrated over the 256-fold range of doses and scaled to a fraction: 1 means no effect, lower means more sensitive. For part of these data: A top dose marked as inferred was derived from the fitted curves, not read from the paper.
